Assay results reported in PubChem BioAssay AID686978 (National Center for Advancing Translational Sciences (NCATS), 2013).
Screen size: about 420,000 compounds; about 64,000 (15%) were called active. Inconclusive results, whose numbers are uncertain, are shown with a selection of clear calls. Calls come from the whole dose curve; as a rule, active = well fitted inhibition curve with a large enough effect; inconclusive = small, poorly fitted or top-dose-only effect; inactive = flat fitted curve, though single readings scatter. Potencies of inconclusive entries are left out as doubtful fits.

assay: qHTS for Inhibitors of human tyrosyl-DNA phosphodiesterase 1 (TDP1): qHTS in cells in absence of CPT; conditions: DT40 Tdp1-/- hTDP1 cells, no CPT, ATP luminescence, 48 h; activity change, negative = growth inhibition: at 46.2 µM (top of the series) unless noted; note: nearly all actives have a fitted effect of over 55% in size
Outline: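 DT40 Tdp1-/-;hTDP1 cells, no CPT (DMSO vehicle only), 400 cells/well; compounds pin-transferred; ≥48 hr, 37 °C; CellTiter-Glo 30 min RT dark, luminescence read.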
% is set by controls: 0 for no effect and ±100 for the full control effect; potency is the fitted concentration of half-maximal effect; tags give direction and shape of the fitted curve.

SMILES | activity change, negative = growth inhibition | Potency
CC(=O)Nc1ccc(CN2CCN(CC(C)C)C(CCO)C2)cc1 (centres undefined) | inactive: -6.22% | 
COc1ccc2c3c([nH]c2c1)[C@H]1C[C@H]2[C@H](C[C@@H](O)[C@H](OC)[C@H]2C(=O)O)CN1CC3 |  | inconclusive [inhibitor, partial curve]
COC(=O)c1ccc(C(=O)OC)c(NC(=O)CN(C)Cc2ccccc2)c1 |  | active: 16.4 µM
O=C(O)C1(O)C[C@@H](O)C(O)[C@H](O)C1 (some centres undefined) |  | inconclusive [inhibitor, single point]
COC(=O)c1cccc(Cn2nnc3sc4c(c3c2=O)CCC(C(C)(C)C)C4)c1 (centres undefined) |  | active: 18.4 µM
COc1ccc(-c2cc(NCc3ccccn3)n3ncnc3n2)cc1 |  | inconclusive [inhibitor, single point]
CN(C)Cc1ccccc1-c1cncnc1NC1CC1 | inactive: -12.9% | 
CCOc1ccccc1NC(=O)CN1CCC(C(=O)c2ccc(OC)cc2)CC1 |  | inconclusive [inhibitor, partial curve]
Cc1ccc(C)c(Nc2nc(-c3ccccc3)c3cc(Br)ccc3n2)c1 |  | inconclusive [inhibitor, single point]
CCOC(=O)c1c(C)[nH]c(C)c1C(=O)COc1ncnc2cc([N+](=O)[O-])ccc12 |  | inconclusive [inhibitor, partial curve]
COc1cc(/C=C2\SC(=O)N(Cc3ccc(Cl)cc3)C2=O)cc([N+](=O)[O-])c1O |  | active: 23.1 µM
C/[N+]([O-])=C\c1coc2ccccc2c1=O | inactive: -14.7% | 
CC(=O)Nc1ccc(NC(=O)C(C)OC(=O)CCCN2C(=O)c3cccc4cccc(c34)C2=O)cc1 (centres undefined) | inactive: -26% | 
O=C(COC(=O)CCC(=O)c1ccc(F)cc1)NCCc1ccccc1 | inactive: -8.58% | 
COCCNC(=O)C1(C)CCCN(Cc2ccc(-c3ccccc3)o2)C1 (centres undefined) |  | inconclusive [inhibitor, single point]
CCc1cc(=O)oc2cc(OCC(=O)N3CCC[C@H]3C(=O)O)ccc12 | inactive: 5.99% | 
COc1ccc(OC(C)c2nnc(N)s2)cc1 (centres undefined) | inactive: 0.268% | 
Cc1cc(C(=O)CN2C(=O)NC3(CCCC3)C2=O)c(C)n1-c1ccc2c(c1)OCO2 |  | inconclusive [inhibitor, single point]
O=C(CNC(=O)c1ccccc1)NCCO | inactive: 0.113% | 
CCOc1nc(SCCOc2ccc(Cl)cc2Cl)nc(N(C)C)n1 |  | inconclusive [inhibitor, single point]
CCN(CCNC(=O)CS(=O)(=O)Cc1nc(-c2cccc(OC)c2)oc1C)c1ccccc1 |  | inconclusive [inhibitor, single point]
COCC(=O)N1CCC2(CC1)CN(Cc1ccccc1OC)C2 |  | inconclusive [inhibitor, full curve, poor fit]

SMILES | activity change, negative = growth inhibition | Potency
CCNC(=S)N/N=C/c1sc(N2CCCCC2)nc1-c1cccs1 |  | inconclusive [inhibitor, single point]
CCN(CCNC(=O)c1ccc2nc(-c3ccccc3NC(C)=O)c(=O)[nH]c2c1)c1ccccc1 |  | inconclusive [inhibitor, single point]
COc1ccc(Nc2cc(C(=O)N3CCc4ccccc4C3)c3ccccc3n2)c(OC)c1 |  | inconclusive [inhibitor, single point]
Brc1ccc(OCc2ccccc2)c(CNCc2ccncc2)c1 |  | inconclusive [inhibitor, single point]
Cc1cccc(N(C)C(CNS(=O)(=O)c2ccccc2)c2ccccc2)c1 (centres undefined) |  | inconclusive [inhibitor, single point]
CC(=O)Oc1cc(OC(C)=O)c2c(C)cc(=O)oc2c1 |  | inconclusive [inhibitor, single point]
COc1ccc(CNC(=O)c2cc(S(=O)(=O)N3CCCC3)cn2C)cc1 | inconclusive: -31.7% [inhibitor] | 
CCOC(=O)c1c(OCC)[nH]c2ccc(O)cc12 | inactive: 0.373% | 
CCNS(=O)(=O)c1ccc(NC(=O)Nc2cccc(OC)c2)cc1 |  | inconclusive [inhibitor, single point]
Cc1oc(-c2ccc(Cl)cc2)cc1C(=O)/C(C#N)=C/Nc1ccccc1 | inconclusive: -31.3% [inhibitor] | 
N#Cc1ccc(NC(=O)Cn2c3[n+](c4ccc(C(F)(F)F)cc42)CCCCC3)cc1 |  | inconclusive [inhibitor, partial curve]
O=C(CCc1nc2ccccc2c(=O)[nH]1)NNC(=O)COc1ccccc1Cl | inconclusive: -32.1% [inhibitor] | 
O=C(/C=C/c1ccc([N+](=O)[O-])cc1)NCCc1ccccc1 |  | inconclusive [inhibitor, single point]
COc1ccc2c(c1)OC(=O)CC2c1cc(OC)c(OC)c(OC)c1 (centres undefined) |  | inconclusive [inhibitor, single point]
O=C(NCc1ccccc1)C1=C[C@H](c2ccc3c(c2)OCO3)C[C@H](OCc2ccc(CO)cc2)O1 |  | inconclusive [inhibitor, single point]
COc1ccc(S(=O)(=O)N2CCOCC2)cc1NC(=O)CSc1ccc(F)cc1 | inconclusive: -34.3% [inhibitor] | 
O=[N+]([O-])c1cccc(N=NN(CCO)c2cccc([N+](=O)[O-])c2)c1 |  | inconclusive [inhibitor, partial curve]
Cc1ccc(NC(=O)c2ccc(NS(=O)(=O)c3cccc4cccnc34)cc2)cc1 | inactive: -23.6% | 
O=C(Nc1cc(=O)[nH]c2nc(-c3ccc(Cl)cc3)nn12)c1ccccc1 |  | inconclusive [inhibitor, single point]
CN(C)c1ccc(-c2nccc(Nc3ccc(F)cc3)n2)cc1 |  | inconclusive [inhibitor, single point]
O=C(Nc1cccc(Cl)c1)c1ccccc1NC(=O)C1CCCCC1C(=O)O (centres undefined) | inactive: -28.4% | 
CC1(C(=O)NCc2cccs2)CCN1CCc1ccccc1 (centres undefined) |  | inconclusive [inhibitor, single point]
